Laboratory results: the supplement of paper PMC4466236
Whole data set: some 33,000 sequences, median “E-score (dimensionless, -0.5 to 0.5)” near -0.058, cut for the highest 2% near 0.35. Some of the results follow.

System: MvaT
Experiment: PBM 8-mer E-score (mean of HK and ME arrays) (E-score (dimensionless, -0.5 to 0.5)); higher = stronger relative binding preference; most listed sequences are background and not binding sites
Summary of the method: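 Full-length P. aeruginosa MvaT carrying an N-terminal glutathione S-transferase tag was tested by protein binding microarray following a previously described protocol. Two universal double-stranded 60-mer arrays, ME and HK, were used, each with a constant 25-mer primer region and a variable 35-mer region covering all 8-mers. The rank-based E-score is the mean of the two arrays, parsed with a custom script. Its range runs from -0.5 to 0.5 for each 8-mer.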

Sequence | PBM 8-mer E-score
CAGTCTTA | 0.124
GGCCCGCC | -0.354
ATCTCTGC | -0.251
AACGACCG | -0.105
AGATAGCG | -0.011
AGTAAATA | 0.361
ATATTTTC | 0.32
AAGGCCTC | -0.268
ACGCTGTC | -0.261
CTGCACAC | 0.0376
ACTCAAGA | -0.0191
CTGGGCCC | -0.333
CTACGAGC | -0.276
CCTAGTCG | -0.142
GTTTGCAA | 0.159
AGGTTGTC | -0.177
CGACGCTC | -0.304
AATGCCCC | -0.175
ACACTAGT | 0.258
CGATTCGA | -0.0688
CCGCGCAA | -0.176
AACAATGT | 0.264
ATGGCTTG | -0.187
ATTTACTG | 0.247
AACCTGTG | -0.0614

Sequence | PBM 8-mer E-score
AATTGGGA | 0.0825
TAACGCTA | 0.057
CCCGTACA | -0.0141
ACGCTTCT | -0.111
GTACCAGA | -0.083
CAAATATC | 0.233
GATAGCTA | -0.0522
CGACTGAC | -0.281
CACGCCCC | -0.29
ATACGCAG | -0.0253
ATCACTCC | -0.158
ATCTCGTG | -0.142
ATTCCCCC | -0.00368
TGGTTTAA | 0.313
CAATCTTC | 0.0249
GAGCTGGA | -0.0964
GCCAACAC | -0.0601
GTGCAGTA | 0.172
AGGCCGAT | -0.208
AACTTCCA | 0.0901
AATCCATT | 0.085
AGCGCTGG | -0.217
CAACTAGG | 0.0857
ATACATCC | 0.197
CAATTTCC | 0.143

Sequence | PBM 8-mer E-score
GATGCAGC | -0.106
CACCAAAG | 0.0651
CTACCTGA | -0.164
CCGTCTTC | -0.15
AATTGCCT | -0.000757
AGACCCAT | -0.0497
ACGGAGAA | 0.0223
AAGCTAAC | -0.15
ATATTGAG | 0.287
CTCCCTGA | -0.246
TATGTCCA | 0.158
GCAGCAAC | -0.121
CGGGAGCA | -0.176
CACTTTGC | 0.00316
GGTGCAGA | -0.154
ATGAACCC | -0.14
AGCCAATA | 0.102
CACTCTGG | -0.149
CGAGGTGA | -0.181
CCATGGGG | -0.298
CACTCCCC | -0.237
GGAATCTA | -0.0396
AAATAGTC | 0.235
GAGAAGGC | -0.252
CGTGAGTA | -0.0677

Sequence | PBM 8-mer E-score
AAGCTCGC | -0.229
AACTTGGG | 0.0738
GACCGCCA | -0.19
CGTACTTA | 0.0935
CACCACCC | -0.103
ATGATCTC | -0.0606
CAACCGCA | -0.116
ATCTACGC | 0.0348
CAAGAATA | 0.225
CCCTACCG | -0.223
CATACTGC | -0.00659
CAGGCGGG | -0.229
TGGTAGAA | 0.0172
TAAAAGAA | 0.207
GTTCAAAC | 0.13
ATGAAGAG | 0.0317
ACAGTCAT | 0.0315
AACAGTCA | 0.0195
ACCGCTCC | -0.0921
CGGTAACC | -0.195
AGTGGCAC | -0.0586
ATGACTCA | -0.062
CTTCGAAA | 0.0509
AAGTGAGG | -0.207
ACTGTCAT | 0.0191

Sequence | PBM 8-mer E-score
AGATTTAC | 0.126
GAACCTGC | -0.176
AAGCCGTC | -0.256
ATGGTACC | -0.0344
AAACAGGC | 0.022
GGAGAGAA | -0.0601
AAGAACAA | 0.267
CACAACGG | -0.176
CATGGCCG | -0.248
CTTCGATC | -0.136
TGCACACA | 0.0734
ATGGAAGG | -0.278
GATCCGTA | -0.0565
CCTTGAGC | -0.173
CCGTCGCG | -0.224
AAATTTGT | 0.264
AGGAAGAT | 0.0835
GAGAAGAC | -0.209
ATTCCGTG | 0.0396
ACTATCTA | 0.128
CAGAAGAG | -0.126
CCGAGAGG | -0.256
GTTCGGGA | -0.0724
CAGCCTCG | -0.247
GAGCAAGA | -0.15

Sequence | PBM 8-mer E-score
GGTGTTTA | 0.0667
GTGAGATA | 0.00796
CCTGCCCG | -0.301
AGAATGTG | 0.136
CGTACAAA | 0.0963
AGACTAAA | 0.125
CACGCCAG | -0.233
ATCCGAGC | -0.0779
CCACGAAG | 0.052
CTTTACCA | 0.0699
CCGTGCCG | -0.146
ACCCGCAA | 0.145
ACTTGTTA | 0.245
CGAACCTA | -0.0542
CCTGGATC | -0.207
CTGCGCAG | -0.139
ATCTTCTC | 0.0223
CTCACGCA | -0.122
CCATGCCC | -0.187
CTGGGCCA | -0.137
ATTATAAC | 0.415
CAGCACAG | -0.152
AGATCCGC | -0.173
ATGCCAAC | -0.0824
CAACGATA | 0.0955

Sequence | PBM 8-mer E-score
AAATCTAG | -0.0431
GCGACTGA | -0.144
GTGTTAGA | 0.0101
AGGAGTCG | -0.257
CACAGCGG | -0.0334
AATAGGGA | 0.0699
GAACAATA | 0.267
GCTGGCAA | 0.02
ATTAGTGC | 0.214
TCAGGCGA | -0.0608
GAGCAGGC | -0.379
AGCCCCGA | -0.309
ATCATAAG | 0.161
TAGGCCAA | -0.0157
GTGGGTAA | 0.0827
ACTGAAGT | 0.0656
GACAGGCA | -0.187
ATTCGATC | 0.0444
GGTATAGA | 0.08
AAAGTATT | 0.27
CGGTGTAA | -0.0735
CACGCGCC | -0.16
